Data published in PubChem BioAssay AID1468 (National Center for Advancing Translational Sciences (NCATS), 2008).
About 1,100 (0.39%) of roughly 280,000 compounds were called active. Inconclusive results, whose numbers are uncertain, are shown with a selection of clear calls. Calls come from the whole dose curve; as a rule, active = well fitted inhibition curve with a large enough effect; inconclusive = small, poorly fitted or top-dose-only effect, or effect the other way; inactive = flat fitted curve, though single readings scatter. No potency is given beside an inconclusive call; the fits are too rough.

molecular target: Microtubule-associated protein tau (Homo sapiens) (UniProt P10636); assay: qHTS for Inhibitors of Tau Fibril Formation, Fluorescence Polarization; conditions: K18 P301L tau heparin fibrillization, Alexa594 FP, 6 h; series mostly up to 57.7 µM; activity, negative = inhibition: at the top concentration; note: nearly all actives have a fitted effect of over 55% in size
Method in brief: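 Compound effects on tau fibrillization are measured by Alexa 594 fluorescence polarization (ex 555, em 632 nm). K18 P301L tau is used at 15 uM with 0.24 uM labeled tracer, and 20 uM heparin induces aggregation over 6 hr at 37 C.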
% is set by controls: 0 for no effect and ±100 for the full control effect; potency is the fitted concentration of half-maximal effect; tags give direction and shape of the fitted curve.

Sequence of UniProt P10636 (P10636 whole entry, looked up): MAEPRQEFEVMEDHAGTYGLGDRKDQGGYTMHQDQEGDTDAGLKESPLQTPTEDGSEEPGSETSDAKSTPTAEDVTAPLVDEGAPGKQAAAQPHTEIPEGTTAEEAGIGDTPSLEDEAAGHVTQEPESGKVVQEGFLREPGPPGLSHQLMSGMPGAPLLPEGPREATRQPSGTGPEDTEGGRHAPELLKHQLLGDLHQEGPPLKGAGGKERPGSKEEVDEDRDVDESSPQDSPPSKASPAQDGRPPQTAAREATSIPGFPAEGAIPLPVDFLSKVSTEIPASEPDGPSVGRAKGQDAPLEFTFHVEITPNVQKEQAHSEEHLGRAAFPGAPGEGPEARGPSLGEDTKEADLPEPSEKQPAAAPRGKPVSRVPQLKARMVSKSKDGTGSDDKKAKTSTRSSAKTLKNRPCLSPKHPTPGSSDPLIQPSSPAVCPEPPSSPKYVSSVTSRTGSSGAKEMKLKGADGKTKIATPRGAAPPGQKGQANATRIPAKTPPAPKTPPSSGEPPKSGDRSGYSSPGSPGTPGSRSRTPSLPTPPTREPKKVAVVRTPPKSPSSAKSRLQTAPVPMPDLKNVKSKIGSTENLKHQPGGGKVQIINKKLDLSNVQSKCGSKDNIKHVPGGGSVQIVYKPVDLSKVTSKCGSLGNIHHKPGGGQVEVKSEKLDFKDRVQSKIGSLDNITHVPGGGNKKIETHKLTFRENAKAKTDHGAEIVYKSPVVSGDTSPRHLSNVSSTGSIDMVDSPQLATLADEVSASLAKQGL

| Compound | Potency | activity, negative = inhibition |
| --- | --- | --- |
| S=c1[nH]ccn1-c1ccccc1Cl | inactive |  |
| Cc1ccc(N(C(=O)COc2ccccc2C)S(=O)(=O)c2ccc(Cl)cc2)cc1 | inconclusive [activator, single point] |  |
| CC(=O)/C(=N/Nc1ccccc1Cl)Sc1nnc(C(O)c2ccccc2)n1-c1ccccc1 (configuration not stated) |  | inactive: -0.0684% |
| CCC(C)/C(C)=N/NC(=O)c1ccc(CSc2nc3ccccc3s2)cc1 (configuration not stated) |  | inactive: -4.57% |
| CN(C)S(=O)(=O)c1ccc(S(=O)(=O)Nc2ccc3c(c2)oc2ccccc23)cc1 | inconclusive [inhibitor, partial curve] |  |
| Cc1cc(Cl)ccc1OCCCC(=O)N/N=C/c1cccc([N+](=O)[O-])c1 |  | inactive: 2.85% |
| CCOc1ccc(NC(=O)N2CCC(CN3CCc4ccccc4C3)CC2)cc1 |  | inactive: 4.31% |
| CCOC(=O)C1CCN(c2nc(N)c3c(N)nc(SCC(=O)O)cc3c2C#N)CC1 | inconclusive [inhibitor, partial curve] |  |
| O=C1N=C(c2ccccc2)S/C1=C\c1cccs1 | inconclusive [inhibitor, full curve, poor fit] |  |
| Cc1cc(C)nc(Nc2n[nH]c(COc3ccc4ccccc4c3)n2)n1 | inconclusive [inhibitor, partial curve, poor fit] |  |
| CNS(=O)(=O)c1cccc(C(=O)OCC(=O)Nc2ccc(-c3nc4ccc(C)cc4s3)cc2)c1 | inconclusive [inhibitor, single point] |  |
| Cc1c(N=Nc2c(-c3ccc([N+](=O)[O-])cc3)[nH]n(C(N)=S)c2=O)cccc1[N+](=O)[O-] | inconclusive [activator, full curve, poor fit] |  |
| Cc1ccccc1-c1nc(NCc2cccnc2)c2ccccc2n1 | inconclusive [inhibitor, single point] |  |
| O=C1ON=C(c2ccccc2)/C1=C/c1ccco1 | inconclusive [inhibitor, partial curve] |  |
| CCOC(=O)N1CCC(NC(=O)c2ccc(CNS(=O)(=O)c3ccc(F)cc3)cc2)CC1 | inconclusive [inhibitor, full curve, poor fit] |  |
| COc1ccc(-c2cc(-c3ccc(OC)cc3)nc(-c3ccc4c(c3)NC(=O)CO4)c2)cc1 | inconclusive [inhibitor, partial curve] |  |
| CCOc1ccc(Nc2nc(NCC3CCCO3)c3ccccc3n2)cc1 (configuration not stated) | inconclusive [activator, partial curve, poor fit] |  |
| CC(C)(C#N)N([O-])C=C[N+](=O)C(C)(C)C#N | inconclusive [inhibitor, partial curve] |  |
| O=C(Nc1cccc2ccccc12)c1cn(-c2ccccc2)nc1-c1cccs1 | inconclusive [inhibitor, partial curve] |  |
| Cc1ccccc1OCc1nnc(SCC(=O)N2c3ccccc3Sc3ccc(Cl)cc32)o1 | inconclusive [inhibitor, single point] |  |
| CC(C)c1ccc(S(=O)(=O)c2cnc(SCC(=O)Nc3cccc(C(F)(F)F)c3)nc2N)cc1 | active: 12.6 µM |  |
| Cc1cccc(NNC(N)=S)c1C | inconclusive [inhibitor, partial curve] |  |
| CC(C)CCNC(=O)COC(=O)c1cc(Br)c(Br)s1 | inconclusive [inhibitor, single point] |  |

| Compound | Potency | activity, negative = inhibition |
| --- | --- | --- |
| Cc1c(NC(=O)c2nn3c(C(F)(F)F)cc(-c4ccccc4)nc3c2Cl)c(=O)n(-c2ccccc2)n1C | inconclusive [inhibitor, partial curve] |  |
| O=C(Nc1ccc2nc(SCCOc3ccccc3Cl)sc2c1)c1cccs1 | active: 10 µM |  |
| COc1ccc(/C=C/C(=O)Nc2c(C)nn(C)c2C)cc1COc1ccc(Cl)cc1Br | inconclusive [inhibitor, single point] |  |
| O=[N+]([O-])c1cccc(CNc2ccc3c(c2)CCC3)c1 | inconclusive [activator, partial curve] |  |
| O=C(CC(c1cccs1)N1Cc2ccccc2C1=O)Nc1ccc(F)c(Cl)c1 (configuration not stated) | inconclusive [inhibitor, partial curve] |  |
| COc1cc(CCC(=O)OCC(=O)Nc2ccccc2C(C)C)cc(OC)c1OC |  | inactive: -7.08% |
| C=CCC(CC=C)(CNC(=O)C(=O)Nc1cccc(C(F)(F)F)c1)c1ccccc1 |  | inactive: -10.2% |
| O=C(Cn1[nH]c(=O)c2ccccc2c1=O)OCC(=O)N(Cc1ccccc1)Cc1ccccc1 | inconclusive [inhibitor, single point] |  |
| CCC1CN(C(=O)N2CCC(C(=O)NCCN(CC)CC)CC2)c2ccccc2O1 (configuration not stated) |  | inactive: -0.224% |
| O=C(CN1CCN(c2ccccc2)CC1)Nc1ccc(Oc2ccccc2)cc1 | inconclusive [activator, partial curve] |  |
| Cc1nnc(NC(=O)CSc2ccccn2)s1 |  | inactive: 9.38% |
| Cc1ccccc1Nc1nc(N)nc(-c2oc3ccccc3c2C)n1 | inconclusive [inhibitor, single point] |  |
| O=C(O)c1cccc(S(=O)(=O)N2CCCC2)c1 | inconclusive [inhibitor, full curve, poor fit] |  |
| COc1ccc(NC(=O)C(c2ccc(C)cc2)N(C)C(=O)Cc2cccs2)cc1 (configuration not stated) | inconclusive [inhibitor, single point] |  |
| COc1ccc(-c2cccc(NS(=O)(=O)c3cc(C)c(OC)c(C)c3C)c2)nn1 | inconclusive [inhibitor, single point] |  |
| O=C(Cn1c(=O)c2cc(Cl)ccc2n2nncc12)Nc1ccccc1 |  | inactive: -8.89% |
| COc1cc(/C=N/O)cc(Br)c1OS(=O)(=O)c1ccc(C)cc1 | inconclusive [inhibitor, partial curve] |  |
| O=C(NCc1ccc(-c2nc3ccccc3s2)cc1)c1ccco1 | inconclusive [activator, single point] |  |
| Cc1cccc(N(Cc2cc3ccccc3[nH]c2=O)S(=O)(=O)c2ccccc2)c1 | inconclusive [inhibitor, single point] |  |
| Cc1ccc(/C=C/C(=O)c2nc3ccccc3[nH]2)cc1 |  | inactive: 17.7% |
| Cc1nc(-c2ccc(Cl)cc2)sc1CCNC(=O)c1ccc(C(F)(F)F)cc1 | inconclusive [inhibitor, single point] |  |
| CCCCN(CC)CCNC(=O)c1cn(-c2ccc(Cl)cc2)c(=O)c2ccccc12 | inconclusive [inhibitor, partial curve] |  |
| C[C@@H](C(=O)Nc1ccc2ccccc2c1)[C@H]1C[C@]1(C)[C@H](NC(=O)OCc1ccccc1)c1ccccc1 | inconclusive [inhibitor, single point] |  |

| Compound | Potency | activity, negative = inhibition |
| --- | --- | --- |
| Cc1ccccc1OCc1nc(-c2ccccc2)no1 |  | inactive: -10.9% |
| COc1ccc(Br)cc1/C=C/C(=O)NCC(=O)O | inconclusive [inhibitor, single point] |  |
| OC(CNCCC1C=Nc2ccccc21)Cn1c2ccc(Cl)cc2c2cc(Cl)ccc21 (configuration not stated) | inconclusive [inhibitor, partial curve] |  |
| O=C(/C=C/c1ccccc1Cl)c1ccccc(=O)c1O | inconclusive [inhibitor, partial curve] |  |
| C/C(CC(=O)Nc1ccc(N(C)C)cc1)=N\NC(=O)c1ccc([N+](=O)[O-])cc1Cl |  | inactive: -11.5% |
| Cc1cccc(-c2nn3c(=O)cc(CN4CCN(S(=O)(=O)c5ccc(Cl)cc5)CC4)nc3s2)c1 |  | inactive: -0.125% |
| Cc1cc(C(=O)COC(=O)c2ccc(O)cc2)c(C)n1CC1COc2ccccc2O1 (configuration not stated) | inconclusive [inhibitor, single point] |  |
| Cc1ccc(C(=O)Nc2nnc(C)s2)cc1 |  | inactive: -7.58% |
| Cn1c2ccccc2c(=O)n2c(=O)c3ccccc3cc12 |  | inactive: -2.98% |
| COc1cc(OC)c(C2Nc3ccccc3-c3nnc(SCc4ccccc4)nc3O2)cc1OC (configuration not stated) |  | inactive: -4.04% |
| CC(N)(Cc1ccc(O)c(O)c1)C(=O)O (configuration not stated) | inconclusive [inhibitor, full curve, poor fit] |  |
| Clc1ccc(-c2csc(NNC3=NCCCCC3)n2)cc1 | inconclusive [inhibitor, single point] |  |
| CCCCCOc1ccc(/C=C/C(=O)Nc2sc(C(C)=O)c(C)c2C(=O)OCC)cc1OC |  | inactive: 2.26% |
| CCOC(=O)c1sc2ncn(/N=C/c3ccc(O)cc3)c(=O)c2c1C | inconclusive [inhibitor, single point] |  |
| CCN1C(=O)/C(=C2/Sc3ccc(OC)cc3N2C)SC1=Nc1cccc(O)c1 | inconclusive [activator, full curve, poor fit] |  |
| N#CC1=C(N)Oc2n[nH]c(-c3cccs3)c2C1c1ccccc1C(=O)O (configuration not stated) |  | inactive: 1.43% |
| CCOC(=O)c1cc(-c2ccccc2)n(CCC(=O)Nc2ccc(Cl)c(C(F)(F)F)c2)c1C | inconclusive [inhibitor, partial curve] |  |
| Cc1cccc(NS(=O)(=O)c2ccc(-n3cccn3)cc2)c1C | inconclusive [inhibitor, single point] |  |
| Cc1ccc(S(=O)(=O)N(C(=O)c2ccncc2)c2ccc(OC(=O)c3ccncc3)c3ccccc23)c(C)c1 | inconclusive [inhibitor, single point] |  |
| C/C(NCCN1CCOCC1)=C(\C#N)C(N)=O | inconclusive [inhibitor, single point] |  |
| Cc1nc(Cc2nnc(SCc3nc(N)nc(Nc4ccccc4C)n3)o2)cs1 | inconclusive [inhibitor, single point] |  |
